According to the supplement of paper PMC4604168 (melanoma cell lines):
This is one part of the list. Many values rest on one well or one pass, so single values are uncertain.

tested on: COLO792; assay: cell count relative to DMSO control; melanoma cells; higher = more viable cells; details: library dose: standard library concentration; 72 h
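Note: cells treated in 1,536-well plates, then fixed and DAPI-stained, with nuclei counted from automated high-throughput microscope images.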

Row | SMILES | cell count
1 | O=c1[nH]nc(Sc2ncc([N+](=O)[O-])s2)n1-c1ccc2c(c1)OCCO2 + O=C(/C=C/c1cccnc1)NCCCCC1CCN(C(=O)c2ccccc2)CC1 [FK866] (first compound 1 µM, partner dose 0.05 µM) | 45.6%
2 | O=c1[nH]nc(Sc2ncc([N+](=O)[O-])s2)n1-c1ccc2c(c1)OCCO2 + CC1(C)NC(=O)N(c2ccc([N+](=O)[O-])c(C(F)(F)F)c2)C1=O [nilutamide] (first compound 1 µM, partner dose 5 µM) | 112%
3 | O=c1[nH]nc(Sc2ncc([N+](=O)[O-])s2)n1-c1ccc2c(c1)OCCO2 + C=CCn1c(=O)c2cnc(Nc3ccc(N4CCN(C)CC4)cc3)nc2n1-c1cccc(C(C)(C)O)n1 [MK1775] (first compound 1 µM, partner dose 0.1 µM) | 77.1%
4 | O=c1[nH]nc(Sc2ncc([N+](=O)[O-])s2)n1-c1ccc2c(c1)OCCO2 + Cn1cncc1[C@@](N)(c1ccc(Cl)cc1)c1ccc2c(c1)c(-c1cccc(Cl)c1)cc(=O)n2C [tipifarnib] (first compound 1 µM, partner dose 0.05 µM) | 96.2%
5 | CC1(C)NC(=O)N(c2ccc([N+](=O)[O-])c(C(F)(F)F)c2)C1=O [nilutamide] + C=CCn1c(=O)c2cnc(Nc3ccc(N4CCN(C)CC4)cc3)nc2n1-c1cccc(C(C)(C)O)n1 [MK1775] (first compound 5 µM, partner dose 0.1 µM) | 50.9%
6 | COc1cc(Nc2ncc(F)c(Nc3ccc4c(n3)NC(=O)C(C)(C)O4)n2)cc(OC)c1OC [Tamatinib] + C=CCn1c(=O)c2cnc(Nc3ccc(N4CCN(C)CC4)cc3)nc2n1-c1cccc(C(C)(C)O)n1 [MK1775] (first compound 2 µM, partner dose 0.1 µM) | 33.2%
7 | COc1cc(Nc2ncc(F)c(Nc3ccc4c(n3)NC(=O)C(C)(C)O4)n2)cc(OC)c1OC [Tamatinib] + O=C(Nc1cccc(Cl)c1)Nc1ncc(CCNc2ncnc3ccsc23)s1 [SNS314] (first compound 2 µM, partner dose 0.004 µM) | 24.6%
8 | O=c1[nH]nc(Sc2ncc([N+](=O)[O-])s2)n1-c1ccc2c(c1)OCCO2 + COc1ccc(C2=N[C@@H](c3ccc(Cl)cc3)[C@@H](c3ccc(Cl)cc3)N2C(=O)N2CCNC(=O)C2)c(OC(C)C)c1 [Nutlin-3] (first compound 1 µM, partner dose 0.5 µM) | 88.4%
9 | O=C(O)c1ccc(-c2c[nH]c3ncc(-c4ccccc4)cc23)cc1C1CCCC1 + NCC(=O)Nc1ccc(-n2nc(C(F)(F)F)cc2-c2ccc3c(ccc4ccccc43)c2)cc1 [OSU03012] (first compound 0.8 µM, partner dose 5 µM) | 85%
10 | C[C@@H]1CCN(C(=O)CC#N)C[C@@H]1N(C)c1ncnc2[nH]ccc12 + COc1cc2ncnc(Nc3ccc(Oc4ccccc4)cc3)c2cc1OC [SrcI1] (first compound 5 µM, partner dose 10 µM) | 72.5%
11 | COc1cc(Nc2ncc(F)c(Nc3ccc4c(n3)NC(=O)C(C)(C)O4)n2)cc(OC)c1OC [Tamatinib] + NCC(=O)Nc1ccc(-n2nc(C(F)(F)F)cc2-c2ccc3c(ccc4ccccc43)c2)cc1 [OSU03012] (first compound 2 µM, partner dose 5 µM) | 27.6%
12 | CC1(C)NC(=O)N(c2ccc([N+](=O)[O-])c(C(F)(F)F)c2)C1=O [nilutamide] + CN(C)S(=O)(=O)c1ccc2c(c1)/C(=C/c1cc3c([nH]1)CCCC3)C(=O)N2 [SU6656] (first compound 5 µM, partner dose 2 µM) | 86.3%
13 | COc1cc(Nc2ncc(F)c(Nc3ccc4c(n3)NC(=O)C(C)(C)O4)n2)cc(OC)c1OC [Tamatinib] + CO[C@@H]1[C@H](N(C)C(=O)c2ccccc2)C[C@H]2O[C@]1(C)n1c3ccccc3c3c4c(c5c6ccccc6n2c5c31)C(=O)NC4 [Midostaurin] (first compound 2 µM, partner dose 0.4 µM) | 28.5%
14 | O=c1[nH]nc(Sc2ncc([N+](=O)[O-])s2)n1-c1ccc2c(c1)OCCO2 + Nc1nc(F)nc2c1ncn2[C@@H]1O[C@H](CO)[C@@H](O)[C@@H]1O [fludarabine] (first compound 1 µM, partner dose 1 µM) | 67.7%
15 | COc1cc(Nc2ncc(F)c(Nc3ccc4c(n3)NC(=O)C(C)(C)O4)n2)cc(OC)c1OC [Tamatinib] + CC1(C)NC(=O)N(c2ccc([N+](=O)[O-])c(C(F)(F)F)c2)C1=O [nilutamide] (first compound 2 µM, partner dose 5 µM) | 47.7%
16 | O=c1[nH]nc(Sc2ncc([N+](=O)[O-])s2)n1-c1ccc2c(c1)OCCO2 + CC(=O)O[C@@]12CO[C@@H]1C[C@H](O)[C@@]1(C)C(=O)[C@H](O)C3=C(C)[C@@H](OC(=O)[C@H](O)[C@@H](NC(=O)OC(C)(C)C)c4ccccc4)C[C@@](O)([C@@H](OC(=O)c4ccccc4)[C@H]21)C3(C)C [Docetaxel] (first compound 1 µM, partner dose 0.0005 µM) | 30.2%
17 | O=C(O)c1ccc(-c2c[nH]c3ncc(-c4ccccc4)cc23)cc1C1CCCC1 + COc1ccc(COc2ccc(Cc3cnc(N)nc3N)cc2OC)cc1 [GW2580] (first compound 0.8 µM, partner dose 5 µM) | 98.5%
18 | O=c1[nH]nc(Sc2ncc([N+](=O)[O-])s2)n1-c1ccc2c(c1)OCCO2 + COc1cc(Nc2ncc(F)c(Nc3ccc4c(n3)NC(=O)C(C)(C)O4)n2)cc(OC)c1OC [Tamatinib] (first compound 1 µM, partner dose 2 µM) | 45.3%
19 | COc1cc(Nc2ncc(F)c(Nc3ccc4c(n3)NC(=O)C(C)(C)O4)n2)cc(OC)c1OC [Tamatinib] + NC(=O)Nc1cc(-c2cccc(F)c2)sc1C(=O)N[C@H]1CCCNC1 [AZD7762] (first compound 2 µM, partner dose 0.1 µM) | 41.5%
20 | O=c1[nH]nc(Sc2ncc([N+](=O)[O-])s2)n1-c1ccc2c(c1)OCCO2 + Cc1ccc(Nc2nccc(N(C)c3ccc4c(C)n(C)nc4c3)n2)cc1S(N)(=O)=O [Pazopanib] (first compound 1 µM, partner dose 2 µM) | 98.7%
21 | CC1(C)NC(=O)N(c2ccc([N+](=O)[O-])c(C(F)(F)F)c2)C1=O [nilutamide] + Cc1ccc(NC(=O)c2cccc(N(C)C)c2)cc1NC(=O)c1ccc(O)cc1 [ZM336372] (first compound 5 µM, partner dose 10 µM) | 81.6%
22 | Cn1cncc1[C@@](N)(c1ccc(Cl)cc1)c1ccc2c(c1)c(-c1cccc(Cl)c1)cc(=O)n2C [tipifarnib] + COC(=O)c1sccc1S(=O)(=O)Nc1ccc(Nc2ccccc2)cc1OC [GSK0660] (first compound 0.05 µM, partner dose 5 µM) | 106%
23 | O=c1[nH]nc(Sc2ncc([N+](=O)[O-])s2)n1-c1ccc2c(c1)OCCO2 + C[C@]1(O)C[C@@H](c2nc(-c3ccc4ccc(-c5ccccc5)nc4c3)c3c(N)nccn32)C1 [OSI906] (first compound 1 µM, partner dose 2 µM) | 119%
24 | COc1cc(Nc2ncc(F)c(Nc3ccc4c(n3)NC(=O)C(C)(C)O4)n2)cc(OC)c1OC [Tamatinib] + Cc1ccc(NC(=O)c2cccc(N(C)C)c2)cc1NC(=O)c1ccc(O)cc1 [ZM336372] (first compound 2 µM, partner dose 10 µM) | 34.8%
25 | O=c1[nH]nc(Sc2ncc([N+](=O)[O-])s2)n1-c1ccc2c(c1)OCCO2 + C[C@]1(c2nc3c(C(N)=O)cccc3[nH]2)CCCN1 [Veliparib] (first compound 1 µM, partner dose 7 µM) | 84.5%
